Test results taken from the supplement of paper PMC12632987.
The full ranking holds about 2,300 sequences; the median of “median log2 fold change of GCK-ALFA target abundance (FLAG IP / Myc IP barcode read proportion)” is about 0.095, and the lowest 2% start at about -0.47. This is one part of the list.

B1: LC3A_28_1132 (protein)
chain: SAAVEAAKAQIDADAEADKNEEEVFLTVNVSGTVTVEEAREIMAHVEKVVEELKDKKKISVLVNFEEPVSQEVLDTILEGGDELEEKFPNVSVIVALPEG
B2: LC3A_132_274 (protein)
chain: EKEKAEELKKELKEKVEKLKENIDNLEEVKKLIKEIEELLKKAEKELSPELVAEVADYLADKMDEVEEKYLAAGKEEQALLVSNLAMYADGIAIEAELKL
B3: LC3A_3_1506 (protein)
chain: MEEFLEEVREFLREQGRSEEVIALAERVLRLLLERGYEEAARKFAELLREAKDFSEEILLDFLEDVLEMLETEEGDEEEIIEKIEEIYTIHKNAHEIIEL
B4: LC3A_28_858 (protein)
chain: SRTRESIRRAREELEKAVAAGEEVTITIEVTEDITPEEVKEVIAAIKEAAEASKDVPSLTVIVDVIGKVDPEHLKEIADAGEEASKANPNLTVIIALDEE
B5: LC3A_free_39_2289 (protein)
chain: MEEKLKKAVEELKKLLDEEPEITEEEKKIILEAASKSLEVAEALVKALKDIKAAGGDVAAFVKEVAELIKKLEEEGASQEELNKAVIEKAEDLRNLIPID
B6: LC3A_23_606 (protein)
chain: MYKIEVIVDVIVPKEEAEKVIEKILEVIEEIVEENKDKIKKVEVKIEKEELEDGRVYIRIDITITVDTTKEEAEEIRNKLVTRLSEVVPDAVISSEVEEL
B7: LC3A_127_214 (protein)
chain: EKEKLIKELLELIRKAQELLAKPDYDLEEIRKLLEEAIKVAKELLKLDERFKPVLEDLESALKLVDQMENLSPAEQEEARERVSMLLDGAEIELLSLELK
B8: LC3A_28_645 (protein)
chain: SAIDEQLAAAKAEAKAAAAAGEPVVVTLTLPGDADQEDVEKILEAMEEIAEILKDVPGSAIVVDIEKGVKQEHKDKIIDKAEEIEKKYPNVTVIIALEEE
B9: LC3A_127_173 (protein)
chain: EKEKLLEEIEKLAEEISKLLDKPDFDVEEIEKLLEEAIKKAKELLKLDPEAEPILEDAEAALKTLEQYKKAPEEKKPELREHLSMLVEGLLIEVLSLLLK
B10: LC3A_3_1602 (protein)
chain: MEELVEEQLERLRAAGFPPEVLEAARRVLEALAEKGFEEAAKTLTEELLELRDLPPEELLATLERILEIVETEDLNEEELIKRIKEEFRVARLAGEIEEL
B11: LC3A_3_1379 (protein)
chain: GEELLERAREILEEQGRSEEATEAALETLRALLERGYEEAAETLVELLEESEDLSDEELLAFFESVLRAVTEEDLSEEELIELIKEEFEVAKNAEEIEEL
B12: LC3A_28_1320 (protein)
chain: SEVEKEYEKAREQAEKQAALGEDITITVKVSGKMTKEEAEELMDKLEEIAEEYAPERKVNIIIDLDSKVKQEVIDLIADKAEEIEEKYPNVTVILALDEE
B13: LC3A_3_1466 (protein)
chain: AEELKKEAEKILKEQGRSEETIKEAKKLLEALAAKGYEEAMKTFVEELKKMKNVSDDILLATLKDLLHIVETEDLNEEEIVKEIKSEFSAAKNEQEIIEL
B14: LC3A_45_2004 (protein)
chain: MWEITIDLLGKPEVVKEAVEKIKEVAKELSKETGKKIEVDTSEAEEALAASQNEEEVFVTITIKVDGDEEDANKLIQAIDKVHEEIGPELASIISKEKIP
B15: LC3A_147_401 (protein)
chain: IVIEATVDVLGEEAAPLAKERAEEIVKELREKGAEVELEIEEEELAPGEVAVRITITVKVETEEAAEEATALISEKLDELAEEVAALGGAIISSIDVIEE
B16: LC3A_62_2055 (protein)
chain: MEKGTIYIDALFKTEETAEKFEKKVKEIVEEAKKEGINVELKIEREKEDGEYFVHVTITTDSEEATLKLYDKVVELVDEMIAEYPDEVLAAIISREIEKL
B17: LC3A_102_152 (protein)
chain: TPEEKLKEAAEKALEELLAAIEANERLTPEQKEEAKELARRAIEAKLRDQLSYLRHGFSDIEAEDEYIEAVERLREIDPELAELLEKKREELEKLAEELK
B18: LC3A_free_8_2511 (protein)
chain: NKEEAAKVISEKYDEIEKKIEELGKKDGLSELEINELLLVVGAEHMEVLLALEDGLEKAIEAAKEAKEEIMKALEPLSEESKKKVKELLEKLIEELKKIA
B19: LC3A_28_1224 (protein)
chain: SHVEEEIKKAEEEMEKAHKAGEEATITVKITGKTTVEDVEKLMEELEKIVEKYKDLPAISIIIDLSGDVSQEVIDKAAEGGEEIEEKFPNVTVILALDEE

target: MAP1LC3A, Q9H492; assay: median log2 fold change of GCK-ALFA target abundance (FLAG IP / Myc IP barcode read proportion) (log2 ratio); each designed protein is fused to an ALFA-tag nanobody in HEK293 cells to bring the named protein to FLAG-tagged glucokinase (GCK); Myc marks an untargeted standard; higher = target protein stabilised (more abundant); details: target protein: 3xFLAG-MCP-GCK-ALFA reporter; HEK293 landing pad (RPLP)
Method in brief: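 The readout is target abundance, the per-binder median log2 ratio of FLAG to Myc barcode read proportions. It came from HEK293 landing-pad cells carrying a recombined ALFA-nanobody-fused binder library, induced with 2 μg mL^−1 doxycycline and transfected with a plasmid for a FLAG-tagged target and a Myc-tagged standard. After 48 h, lysates were immunoprecipitated with anti-FLAG and anti-Myc, and circular RNA barcodes were reverse transcribed, amplified and sequenced. Each barcode needed a proportion of at least 10^−7 in both replicates and each binder at least 3 barcodes per replicate, a pseudocount of 10^−6 was added, and the replicates were pooled.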

Binder	median log2 fold change
B1	-0.13
B2	-0.0602
B3	0.0983
B4	0.258
B5	0.377
B6	0.19
B7	0.409
B8	-0.232
B9	0.0826
B10	0.21
B11	0.12
B12	0.0662
B13	0.346
B14	0.0876
B15	-0.00887
B16	-0.0614
B17	0.284
B18	0.196
B19	0.226
